Source: the supplement of paper PMC10369915
This is one part of the list. No stated cut-off is given here; in the data, active = 3.2 or more and inactive = the rest. Most of these values are background signal.

Legend:
Experiment in all cases: enrichment score (SH2-bound / input frequency) (ratio); bacterial display of known human phosphotyrosine sites (pTyr-Var adds point mutants) read by sequencing; higher = stronger binding; tyrosines were phosphorylated by kinases first
Details in all cases: peptide library: pTyr-Var
[1] = biological target: SHP2 C-SH2 domain E139D
[2] = biological target: SHP2 C-SH2 domain wild-type
[3] = biological target: SHP2 N-SH2 domain L43F
[4] = biological target: SHP2 N-SH2 domain T42A
[5] = biological target: SHP2 N-SH2 domain T52S
[6] = biological target: SHP2 N-SH2 domain wild-type

Measured: enrichment score
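Further: displayed peptides selected on beads carrying the immobilized SH2 domain, with library peptides lacking any tyrosine serving as negative controls.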

B1: YWHAG_Y131_R132C (peptide)
chain: MKGDYYCYLAE
inactive: [1] 1.41 | [2] 1.7 | [3] 1.15 | [4] 0.878 | [5] 0.886 | [6] 2.75

B2: XPC_Y669_R671H (peptide)
chain: AAILGYCHGEA
inactive: [1] 0.831 | [2] 1.06 | [3] 0.94 | [4] 0.856 | [5] 0.94 | [6] 0.944

B3: VHL_Y185_L184P (peptide)
chain: IVRSPYEDLED
inactive: [1] 0.607 | [2] 0.437 | [3] 0.535 | [4] 0.437 | [5] 0.416 | [6] 0.748

B4: VPS13D_Y864_T865A (peptide)
chain: ERRLIYASDPK
inactive: [1] 0.884 | [2] 0.741 | [3] 0.857 | [4] 0.645 | [5] 0.895 | [6] 0.789

B5: XDH_Y1092_V1091L (peptide)
chain: NGQALYAACQT
inactive: [1] 0.756 | [2] 0.642 | [3] 0.626 | [4] 0.736 | [5] 0.775 | [6] 0.996

B6: VWF_Y1400_R1399H (peptide)
chain: RNFVHYVQGLK
inactive: [1] 0.982 | [2] 1.46 | [3] 0.913 | [4] 2.26 | [5] 1.28 | [6] 0.968

B7: VAV3_Y294_T298S (peptide)
chain: ISSLDYISKSK
inactive: [1] 0.704 | [2] 0.609 | [3] 0.604 | [4] 0.55 | [5] 0.583 | [6] 0.821

B8: WDR19_Y1230_E1235K (peptide)
chain: KIDAKYKKKIK
inactive: [1] 0.585 | [2] 0.692 | [3] 0.63 | [4] 0.837 | [5] 0.663 | [6] 0.52

B9: VIM_Y150_E151K (peptide)
chain: RLGDLYKEEMR
inactive: [1] 1.1 | [2] 0.651 | [3] 1.12 | [4] 0.752 | [5] 1.12 | [6] 1.17

B10: VNN1_Y134 (peptide)
chain: KNNSIYVVANI
inactive: [1] 1.79 | [2] 1.97 | [3] 1.66 | [4] 1.53 | [5] 1.55 | [6] 1.76

B11: VSX2_Y222_R227W_YF (peptide)
chain: AEFGLYGAMVW
inactive: [1] 0.772 | [2] 1.12 | [3] 0.906 | [4] 0.672 | [5] 0.658 | [6] 1.17

B12: VWDE_Y1035_T1032M (peptide)
chain: KIMVIYDGACQ
inactive: [1] 0.728 | [2] 1.18 | [3] 1.04 | [4] 0.909 | [5] 0.764 | [6] 1.18

B13: XPNPEP3_Y455 (peptide)
chain: IEPGIYIPEDD
inactive: [1] 0.669 | [2] 0.584 | [3] 0.746 | [4] 0.563 | [5] 0.668 | [6] 2.08

B14: VWA3B_Y918_N916D (peptide)
chain: AKLDIYKRKVE
inactive: [1] 0.77 | [2] 0.836 | [3] 0.809 | [4] 0.646 | [5] 0.774 | [6] 0.983

B15: VHL_Y112_G114C (peptide)
chain: RRIHSYRCHLW
inactive: [1] 0.387 | [2] 0.489 | [3] 0.425 | [4] 0.375 | [5] 0.425 | [6] 0.293

B16: VIL1_Y256 (peptide)
chain: AALKLYHVSDS
inactive: [1] 0.883 | [2] 0.778 | [3] 0.557 | [4] 0.497 | [5] 0.728 | [6] 0.707

B17: YWHAG_Y130_R132C_YF (peptide)
chain: KMKGDYFCFLA
inactive: [1] 1.5 | [2] 1.71 | [3] 1.64 | [4] 1.43 | [5] 1.56 | [6] 1.61

B18: VSX2_Y222_G223A_YF (peptide)
chain: AEFGLYAAMVR
inactive: [1] 0.958 | [2] 1.16 | [3] 0.796 | [4] 0.757 | [5] 0.997 | [6] 1.21

B19: WDR19_Y28_A30P (peptide)
chain: KTSGNYLPVTG
inactive: [1] 0.937 | [2] 0.719 | [3] 0.961 | [4] 0.86 | [5] 0.608 | [6] 0.986

B20: YBX1_Y145_YF (peptide)
chain: ADRNHYRRFPR
inactive: [1] 0.279 | [2] 0.266 | [3] 0.274 | [4] 0.267 | [5] 0.269 | [6] 0.251

B21: YIPF7_Y59_YF (peptide)
chain: AFGNLYGSRKQ
inactive: [1] 0.445 | [2] 0.365 | [3] 0.503 | [4] 0.551 | [5] 0.464 | [6] 0.504

B22: VPS13B_Y2774 (peptide)
chain: QKLPSYILENN
inactive: [1] 1.19 | [2] 1.05 | [3] 0.936 | [4] 1.13 | [5] 0.964 | [6] 1.47

B23: VHL_Y175_Y175D (peptide)
chain: VKPENDRRLDI
inactive: [1] 0.702 | [2] 0.521 | [3] 0.762 | [4] 0.697 | [5] 0.643 | [6] 0.892

B24: VCP_Y203 (peptide)
chain: LNEVGYDDIGG
inactive: [1] 0.433 | [2] 0.558 | [3] 0.543 | [4] 0.792 | [5] 0.702 | [6] 0.777

B25: YBX1_Y145_P149R (peptide)
chain: ADRNHYRRYRR
inactive: [1] 0.239 | [2] 0.365 | [3] 0.26 | [4] 0.299 | [5] 0.285 | [6] 0.298

B26: WDR19_Y28 (peptide)
chain: KTSGNYLAVTG
inactive: [1] 0.681 | [2] 0.507 | [3] 0.639 | [4] 0.767 | [5] 0.562 | [6] 0.632

B27: WWOX_Y287 (peptide)
chain: PTKNDYWAMLA
inactive: [1] 0.926 | [2] 0.743 | [3] 1 | [4] 0.804 | [5] 0.949 | [6] 0.915

B28: WDR5B_Y239_S240R (peptide)
chain: LKLWDYRRGRC
inactive: [1] 0.281 | [2] 0.199 | [3] 0.31 | [4] 0.194 | [5] 0.31 | [6] 0.311

B29: WNT5A_Y86_C83S (peptide)
chain: KLSHLYQDHMQ
inactive: [1] 1.4 | [2] 1.22 | [3] 1.22 | [4] 0.849 | [5] 0.957 | [6] 1.05

B30: YWHAG_Y130_D129E_YF (peptide)
chain: KMKGEYFRFLA
inactive: [1] 2.57 | [2] 2.41 | [3] 2.72 | [4] 2.18 | [5] 2.67 | [6] 2.45

B31: VWF_Y1400 (peptide)
chain: RNFVRYVQGLK
inactive: [1] 0.643 | [2] 0.594 | [3] 0.62 | [4] 0.506 | [5] 0.571 | [6] 0.472

B32: XRCC2_Y59 (peptide)
chain: KTEMLYHLTAR
inactive: [1] 1.03 | [2] 0.772 | [3] 0.895 | [4] 0.889 | [6] 0.859

B33: XPC_Y676_R671H (peptide)
chain: HGEAVYSRDCV
inactive: [1] 0.687 | [2] 0.611 | [3] 0.555 | [4] 0.475 | [5] 0.631 | [6] 0.634

B34: VCAM1_Y718 (peptide)
chain: IGMIIYFARKA
inactive: [1] 0.708 | [2] 0.662 | [3] 0.598 | [4] 0.656 | [5] 0.667 | [6] 0.671

B35: VHL_Y112_G114R (peptide)
chain: RRIHSYRRHLW
inactive: [1] 0.173 | [2] 0.208 | [3] 0.176 | [4] 0.164 | [5] 0.21 | [6] 0.245

B36: YIPF7_Y59 (peptide)
chain: AYGNLYGSRKQ
inactive: [1] 0.584 | [2] 0.498 | [3] 0.588 | [4] 0.709 | [5] 0.42 | [6] 0.42

B37: WFIKKN2_Y93_V96M (peptide)
chain: CVAARYMDMKG
inactive: [1] 0.635 | [2] 0.799 | [3] 0.738 | [4] 0.586 | [5] 0.736 | [6] 0.868
